Data taken from PubChem BioAssay (NCATS).
“And” between values parts separate entries of the source, which are not always exact repeats. Equal entries are not always repeated. Inconclusive results, whose numbers are uncertain, are shown with a selection of clear calls. Where the call is inconclusive, the potency comes from a doubtful curve fit. The source holds several records for some structures; these can differ, active in one and inactive in another. The source made the active and inactive calls. The call rests on the fitted dose curve; in most records, active means well fitted curve in the direction sought with a large enough effect; inconclusive means small, poorly fitted or top-dose-only effect, or another doubt; inactive means no such curve, though single readings can be large; an effect the other way counts as inactive or inconclusive.

Key:
[1] = Viability qHTS for spleen associated tyrosine kinase inhibitor (SYKi) naive MV4-11 cells (AID 1963823); details: MV4-11 AML viability, CellTiter-Glo luminescence, 72 h; viability (% of control): at 45 µM (top of the series); further: nearly all actives have a fitted effect of over 40% in size
Procedure, shortened: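 Cells: MV4-11, SYK inhibitor naive, 500 per well. Treatment: library compounds, 72 hr, 37 C, 5% CO2. Read-out: CellTiter-Glo luminescence after 10 min RT.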

[2] = Viability qHTS for spleen associated tyrosine kinase inhibitor (SYKi) drug resistant MV4-11 cells (AID 1963824); further: nearly all actives have a fitted effect of over 35% in size
Procedure, shortened: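 SYK inhibitor-resistant MV4-11 AML cells, 500 per well, added to predispensed compounds and incubated 72 hr at 37 C, 5% CO2. Viability measured by CellTiter-Glo luminescence after 10 min at room temperature.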

[3] = Cellular viability qHTS for adrenocortical cancer (ACC) cell line SW-13 (AID 1963989); details: SW-13 ACC cells viability, CellTiter-Glo, 48 h; activity (max response): stronger effect = lower value; further: nearly all actives have a fitted effect of over 65% in size;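 on activity (max response): cells grown in serum-free medium with ITS supplement; on the % scale 0 is the no-effect control and ±100 the full control effect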
Procedure, shortened: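 Here, serum-free SW-13 cultures were dosed up to 46 uM. Following 48 h, ATP-dependent luminescence (CellTiter-Glo) reported viable cells, and logistic modeling produced IC50 values.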

[4] = Cellular viability qHTS for adrenocortical cancer (ACC) cell line NCI-H295R (AID 1963990); details: CellTiter-Glo ATP luminescence, 48 h; activity change, negative = viability loss: at 46.1 µM (top of the series); further: nearly all actives have a fitted effect of over 60% in size;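 on activity change, negative = viability loss: 0% = DMSO only wells and -100% = full killing with cytotoxic reference compound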
Procedure, shortened: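 Viability of NCI-H295R after 48 h of treatment (final up to 46 uM) measured through cellular ATP luminescence.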
Potency means the concentration at half of the fitted maximal effect; tags describe the fitted curve by direction and shape.

SMILES | Potency [1] | Potency [2] | activity (max response) [3] | Potency [3] | Potency [4] | viability, % of control [2]
O=C(C[C@@H]1C/C=C\CCC(=O)O[C@H](c2ccccc2)CNC1=O)NCc1ccc(Cl)cc1 | active: 4.68 µM | inconclusive: 11.8 µM [cytotoxic, partial curve, poor fit] | inactive: 11.5% |  |  | 
CCCOC(=O)c1ccc(N)cc1 | inactive | inconclusive: 23.7 µM [cytotoxic, partial curve, poor fit] |  | inconclusive: 23.1 µM [cytotoxic, partial curve, poor fit] |  | 
CC(O)Cn1cnc2c1c(=O)n(C)c(=O)n2C (configuration not stated) | inconclusive: 5.31 µM [cytotoxic, partial curve, poor fit] | inconclusive: 11.9 µM [cytotoxic, partial curve, poor fit] | inactive: -7.87% |  |  | 
CC(=O)N1CCN(CCOc2ccc(C3CCN(C4=Nn5c(nnc5C(F)(F)F)CC4)CC3)cc2)CC1 | inconclusive: 4.11 µM [cytotoxic, partial curve] | inconclusive: 4.11 µM [cytotoxic, full curve] |  | inconclusive: 22.4 µM [cytotoxic, single point] |  | 
CN1CCC(=C2c3ccccc3Sc3ccccc32)CC1 | inconclusive: 15 µM [cytotoxic, partial curve] | active: 16.8 µM |  | active: 23.1 µM |  | 
CC(C)(C(=O)O)c1ccc(C(O)CCCN2CCC(C(O)(c3ccccc3)c3ccccc3)CC2)cc1 (configuration not stated) | inactive | inactive | inactive: -2.55% |  |  | 
COc1cccc(CCc2ccccc2OCC(CN(C)C)OC(=O)CCC(=O)O)c1 (configuration not stated) | inconclusive: 18.8 µM [cytotoxic, single point] | inconclusive: 29.9 µM [cytotoxic, single point] |  | inconclusive: 20.6 µM [cytotoxic, single point] | inconclusive: 18.4 µM [cytotoxic, single point] | 
O=c1[nH]c(=O)c2[nH]c(=O)[nH]c2[nH]1 | inconclusive: 0.433 µM [rising, single point] |  |  | inconclusive: 5.31 µM [cytotoxic, single point] | active: 2.66 µM | inactive: 120% [at 9.25 µM]
O=C(OCC(O)CO)c1ccccc1Nc1ccnc2cc(Cl)ccc12 (configuration not stated) | inconclusive: 5.31 µM [cytotoxic, partial curve] | inconclusive: 15 µM [cytotoxic, partial curve] |  | inconclusive: 20.6 µM [cytotoxic, single point] | inconclusive: 5.17 µM [cytotoxic, full curve] | 
C=CCOc1ccccc1OCC(O)CNC(C)C (configuration not stated) | inactive | inactive |  | inconclusive: 23.1 µM [cytotoxic, single point] | inactive | 
N#Cc1ccc(Cn2cncc2CN2CCN(c3cccc(Cl)c3)C(=O)C2)cc1 | inconclusive: 2.35 µM [cytotoxic, full curve] | active: 2.95 µM |  | inconclusive: 15.8 µM [cytotoxic, partial curve, poor fit] | inconclusive: 14.1 µM [cytotoxic, partial curve] | 
O=C(O)c1cnn(-c2nc3cc(OC(F)(F)F)c(Cl)cc3[nH]2)c1 | inconclusive: 11.6 µM [cytotoxic, partial curve] | inconclusive: 7.31 µM [cytotoxic, partial curve] |  | inconclusive: 35.5 µM [cytotoxic, partial curve, poor fit] | inconclusive: 35.5 µM [cytotoxic, single point] | 
C[C@H](NC(=O)[C@H]1NCC[C@@H]1O)c1ccc(-c2noc(CCC3CCCC3)n2)cc1 | inconclusive: 8.33 µM [cytotoxic, full curve] | inconclusive: 6.61 µM [cytotoxic, full curve, poor fit] | inactive: -20.3% |  | inconclusive: 10 µM [cytotoxic, single point] | 
Cc1nc(C)c(CN2CCN(C(c3ccc(F)cc3)c3ccc(F)cc3)CC2)nc1C | inconclusive: 9.34 µM [cytotoxic, partial curve, poor fit] | active: 14.8 µM |  | inconclusive: 35.5 µM [cytotoxic, single point] | inconclusive: 35.5 µM [cytotoxic, single point] | 
C=C1CCC2[C@](C)(CO)C(O)CC[C@]2(C)C1C/C=C1/C(=O)OCC1O (some centres not stated) | active: 3.32 µM | active: 2.63 µM |  | active: 25.1 µM | inconclusive: 22.4 µM [cytotoxic, partial curve, poor fit] | 
Nc1nc(OC(c2ccc(-c3cccc(F)c3)cc2)C(F)(F)F)cc(-c2ccc(C[C@@H](N)C(=O)O)cc2)n1 (some centres not stated) | inconclusive: 20.9 µM [cytotoxic, partial curve, poor fit] | inconclusive: 16.6 µM [cytotoxic, partial curve] |  | inconclusive: 25.1 µM [cytotoxic, partial curve] | inconclusive: 35.5 µM [cytotoxic, partial curve, poor fit] | 
C#C[C@]1(O)CC[C@H]2[C@@H]3[C@H](C)CC4=C(CCC(=O)C4)[C@H]3CC[C@@]21C | inactive and inconclusive: 26.3 µM [cytotoxic, single point] | inconclusive: 29.9 µM [cytotoxic, single point] |  | inconclusive: 23.1 µM [cytotoxic, single point] | inconclusive: 29.1 µM [cytotoxic, single point] | 
Cc1cccc(N(C)C(=S)Oc2ccc3c(c2)CCC3)c1 | inconclusive: 9.44 µM [cytotoxic, partial curve] | active: 18.4 µM |  | inconclusive: 23.1 µM [cytotoxic, partial curve, poor fit] | inconclusive: 11.6 µM [cytotoxic, partial curve, poor fit] | 
C1=C/COCc2cc(ccc2OCCN2CCCC2)Nc2nccc(n2)-c2cccc(c2)COC/1 | inactive | inactive |  | active: 4.47 µM | active: 5.01 µM | 
O=C(NO)c1ccccc1 | inconclusive: 0.0116 µM [rising, full curve, poor fit] | inconclusive: 4.11 µM [rising, partial curve, poor fit] |  | inconclusive: 44.7 µM [cytotoxic, single point] | inconclusive: 35.5 µM [cytotoxic, partial curve, poor fit] | 
COC(=O)[C@@H]1[C@H]2C[C@H]3c4[nH]c5ccccc5c4CCN3C[C@@H]2CC[C@@H]1O | inconclusive: 21.1 µM [cytotoxic, partial curve] | inconclusive: 18.8 µM [cytotoxic, single point] and inconclusive: 32.6 nM [cytotoxic, full curve, poor fit] | inactive: -16.5% | inconclusive: 29.1 µM [cytotoxic, single point] | inconclusive: 3.66 µM [cytotoxic, partial curve, poor fit] | 
NC(N)=NC(N)=NCCc1ccccc1 | inconclusive: 0.9 nM and active: 11.8 µM | inconclusive: 7.5 µM [cytotoxic, partial curve, poor fit] and inconclusive: 11.8 µM [cytotoxic, partial curve] | inactive: -8.99% | inconclusive: 16.4 µM [cytotoxic, partial curve, poor fit] |  | 
CCOc1ccccc1O[C@H](c1ccccc1)[C@H]1CNCCO1 | inconclusive: 23.7 µM [cytotoxic, single point] | inconclusive: 33.5 µM [cytotoxic, single point] | inactive: -2.45% |  | inactive | 
OCc1cc(C(O)CNCCCCCCOCCCCc2ccccc2)ccc1O (configuration not stated) | inconclusive: 18.8 µM [cytotoxic, partial curve, poor fit] | inconclusive: 15 µM [cytotoxic, partial curve, poor fit] |  | inconclusive: 20.6 µM [cytotoxic, single point] | inconclusive: 20.6 µM [cytotoxic, single point] | 
COc1nc(OCc2cccc(-c3ccccc3)c2C)ccc1CNCCNC(C)=O | inconclusive: 4.68 µM [cytotoxic, full curve] | active: 3.72 µM |  | active: 7.94 µM | active: 6.31 µM | 
COc1cc(C(=O)NC2CCN(C)CC2)c(F)cc1Nc1ncc2c(n1)N(C1CCCC1)CC(F)(F)C(=O)N2C | active: 0.0206 µM | active: 0.0092 µM |  | inconclusive: 0.112 µM [cytotoxic, full curve, poor fit] | inconclusive: 22.4 µM [cytotoxic, partial curve, poor fit] | 
COc1cc(/C=C/C(=O)CC(=O)/C=C/c2ccc(O)c(OC)c2)ccc1O | inconclusive: 3.72 µM [cytotoxic, full curve] | inconclusive: 5.9 µM [cytotoxic, full curve] |  | inconclusive: 35.5 µM [cytotoxic, single point] | inconclusive: 28.2 µM [cytotoxic, single point] | 
CC#CC(=O)N1CCC[C@H]1c1nc(-c2ccc(C(=O)Nc3ccccn3)cc2)c2c(N)nccn12 | inconclusive: 3.23 µM [cytotoxic, full curve] | inconclusive: 6.45 µM [cytotoxic, partial curve] |  | inconclusive: 10.1 µM [cytotoxic, single point] | inactive | 
